In patent publication US20180072806A1 (SHIRE HUMAN GENETIC THERAPIES, published 2018):

What was measured:
mouse Flt-1 (mouse) [1] = target: T1, mouse Flt-1 (mouse) (UniProt P35969); test: cell-based or functional assay
T1 sequence (looked up): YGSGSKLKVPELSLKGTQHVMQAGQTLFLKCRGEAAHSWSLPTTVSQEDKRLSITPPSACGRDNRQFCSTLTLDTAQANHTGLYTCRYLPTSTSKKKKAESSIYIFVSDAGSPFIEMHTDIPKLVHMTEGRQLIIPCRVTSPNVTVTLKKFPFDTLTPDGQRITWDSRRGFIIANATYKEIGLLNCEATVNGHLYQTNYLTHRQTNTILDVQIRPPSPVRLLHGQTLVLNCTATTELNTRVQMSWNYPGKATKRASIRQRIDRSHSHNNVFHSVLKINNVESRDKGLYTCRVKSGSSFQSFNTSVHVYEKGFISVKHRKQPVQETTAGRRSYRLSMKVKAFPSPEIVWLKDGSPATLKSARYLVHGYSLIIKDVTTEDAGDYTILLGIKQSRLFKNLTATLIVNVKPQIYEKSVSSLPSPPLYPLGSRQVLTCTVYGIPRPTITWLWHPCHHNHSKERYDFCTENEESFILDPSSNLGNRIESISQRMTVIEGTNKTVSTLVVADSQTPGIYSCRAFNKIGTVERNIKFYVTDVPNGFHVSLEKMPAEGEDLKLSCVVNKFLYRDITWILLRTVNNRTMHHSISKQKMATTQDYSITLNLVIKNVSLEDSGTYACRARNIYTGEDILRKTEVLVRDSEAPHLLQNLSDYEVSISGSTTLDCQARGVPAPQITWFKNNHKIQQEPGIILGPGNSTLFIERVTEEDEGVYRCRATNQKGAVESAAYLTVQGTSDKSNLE

[2] = target: T2, recombinant human soluble Flt-1 (human, UniProt P17948 27-758); test: cell-based or functional assay
T2 construct: Recombinant soluble form (immunogen bought from ABCAM); also called human sFlt-1; sFlt-1
T2 sequence (P17948 27-758 limits assumed): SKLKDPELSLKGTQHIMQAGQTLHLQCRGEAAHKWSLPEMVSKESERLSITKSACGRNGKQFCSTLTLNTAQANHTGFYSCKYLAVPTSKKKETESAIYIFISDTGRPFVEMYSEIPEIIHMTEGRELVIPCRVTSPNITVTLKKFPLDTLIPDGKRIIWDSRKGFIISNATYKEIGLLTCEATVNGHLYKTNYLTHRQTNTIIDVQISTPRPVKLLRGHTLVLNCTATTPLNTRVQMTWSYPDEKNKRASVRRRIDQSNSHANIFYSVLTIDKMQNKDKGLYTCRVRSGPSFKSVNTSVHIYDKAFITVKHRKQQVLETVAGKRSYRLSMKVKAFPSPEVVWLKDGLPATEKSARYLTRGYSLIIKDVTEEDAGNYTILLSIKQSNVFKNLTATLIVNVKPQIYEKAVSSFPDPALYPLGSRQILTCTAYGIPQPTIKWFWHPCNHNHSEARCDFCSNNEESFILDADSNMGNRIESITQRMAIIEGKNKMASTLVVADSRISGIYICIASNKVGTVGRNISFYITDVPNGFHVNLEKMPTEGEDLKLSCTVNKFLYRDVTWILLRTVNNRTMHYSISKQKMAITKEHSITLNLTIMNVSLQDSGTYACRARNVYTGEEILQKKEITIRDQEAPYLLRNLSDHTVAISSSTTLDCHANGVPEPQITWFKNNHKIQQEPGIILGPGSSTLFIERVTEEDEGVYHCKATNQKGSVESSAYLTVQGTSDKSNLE

mouse Flt-1 (mouse) [3] = target: T1, mouse Flt-1 (mouse); test: Affinity (nM) of Table 4; method not given
[4] = target: T2, recombinant human soluble Flt-1; test: Affinity (nM) of Table 4; method not given
mouse Flt-1 (mouse) [5] = target: T1, mouse Flt-1 (mouse); test: SPR (Biacore)
[6] = target: T2, recombinant human soluble Flt-1; test: SPR (Biacore)
mouse Flt-1 (mouse) [7] = target: T1, mouse Flt-1 (mouse); test: IC50 by ELISA (Table 4)
[8] = target: T2, recombinant human soluble Flt-1; test: IC50 by ELISA (Table 4)

Bioassay (% rescue), mFlt-1 (mouse Flt-1 (mouse) [1]): 72.2%
Bioassay (% rescue), hFlt-1 [2]: 90%
Kd (mouse Flt-1 (mouse) [3]): 1.4 nM
Kd [4]: 0.6 nM
Kd (mouse Flt-1 (mouse) [5]): 1.4 nM
Kd [6]: 0.58 nM
IC50 (mouse Flt-1 (mouse) [7]): 0.5 nM
IC50 [8]: 0.0133 nM
B1: anti-Flt-1 antibody 13B4 (antibody, part only; not given: light chain, part only)
heavy: ELQLVESGGGLVQPGGSLRLSCAASGFTFRDYSMSWVRQAPGKGLEWVSAISWNGDSTYYAESMKGRFTISRDNAKNTLYLQMNSLKSEDTAVYYCAKSWATPIESLYYYGMDYWGKGTLVTVSS[omitted - human IgG1 constant region with H429N (EU numbers)]
